We go through 48 compounds from PubChem BioAssay AID1963576 (National Center for Advancing Translational Sciences (NCATS), 2024).

Out of some 46,000 compounds screened, about 60 (0.1%) were called active. Another 3% or so got no clear call; they are omitted. The call rests on the fitted dose curve; in most records, active means well fitted inhibition curve with a large enough effect; inconclusive means small, poorly fitted or top-dose-only effect; inactive means no such curve, though single readings can be large or run the other way. The list shows a part of the results.

The assay is described as follows: Primary qHTS assay for Inhibitors of ovarian cancer metastasis using an organotypic tumor microenvironment (TME) model. Further: nearly all actives have a fitted effect of over 65% in size.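 On activity change, negative = inhibition: plate controls were DMSO wells for no effect and tomatine positive control wells for full effect.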 The following applies: SKOV3ip1-GFP adhesion/invasion on 3D omental model, fluorescence; series mostly up to 45.8 µM; activity change, negative = inhibition: at the top concentration. In short, it runs like this:
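Adhesion/invasion was scored as fixed GFP-labeled SKOV3ip1 cell counts (488/509 nm), normalized to DMSO and tomatine controls. Cancer cells in serum-free medium, with four compound doses (0.36-46 umol/L), sat 2 hr at RT then 16 hr at 37 C on a 48 hr fibroblast/mesothelial/ECM culture.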
Background: qHTS replaces the single test concentration by a dilution series.
As to `COc1cccc2c1cc1c(=O)n(CC(=O)N3CCN(c4ccc(Cl)cc4)CC3)nc(C)n12`, the “activity change, negative = inhibition” value was inactive: 8.89%.

For `O=C1N(Cc2ccccc2)c2ccc(Cl)cc2C1(O)c1c[nH]c2ccccc12` (stereo not drawn), the compound was called inactive.

`Cc1ccc(NS(=O)(=O)c2ccc3c(c2)n(C)c(=O)n3C)cc1C`: the “activity change, negative = inhibition” value is inactive: 0.79%.

Regarding `COc1ccccc1NC(=O)Cn1c(SCC(=O)N(C)c2ccccc2)nc2ccccc21`, the “activity change, negative = inhibition” value was inactive: -4.04%.

Regarding `Cc1cc2nc(-c3ccc(OCc4ccccc4Cl)cc3)cc(C(F)(F)F)n2n1`, the “activity change, negative = inhibition” value is inactive: 14.1%.

With `Cc1cccc(C(=O)NCC(=O)OCc2cc(=O)n3nc(CC(C)C)sc3n2)c1`, the outcome was inactive.

On to `CN(C)c1ccc(CNC(=O)c2cccc(NC(=O)N3CCSc4ncccc43)c2)cc1`, for which the compound was called inactive.

`COc1cccc(C(=O)N2CCN(CCc3ccncc3)CC2)c1`: the “activity change, negative = inhibition” value is inactive: -3.46%.

For `Cn1c(=O)c2c(-c3cccc(Br)c3)n(C(C)(C)CO)cc2n(C)c1=O`, the “activity change, negative = inhibition” value was inactive: -15.9%.

As to `CCC(C(=O)NCc1ccco1)n1nc(C)c2c(C)n(-c3ccc(C)cc3)nc2c1=O` (stereo not drawn), the “activity change, negative = inhibition” value is inactive: 2.23%.

As for `O=C(Nc1ccccc1Cl)C1CCN(c2nc3ccccc3nc2C(F)(F)F)CC1`, the “activity change, negative = inhibition” value was inactive: 14.8%.

For `CCOc1ccccc1NC(=O)CSc1nnc2[nH]c(=O)cc(-c3ccccc3)n12`, the “activity change, negative = inhibition” value was inactive: -0.608%.

For `Cc1cc(C)cc(NC(=O)Cn2cc(S(=O)(=O)NC(C)(C)C)c(S(=O)(=O)NC(C)(C)C)c2)c1`, the “activity change, negative = inhibition” value is inactive: 2.95%.

As to `N#CC(c1ccnc(NCCc2cccnc2)n1)c1nc2ccccc2s1` (stereo not drawn), the “activity change, negative = inhibition” value was inactive: -4.02%.

As to `CNC(=O)c1c(NC(=O)c2ccc(S(=O)(=O)N3CCCCC3)cc2)sc2c1CCC2`, the “activity change, negative = inhibition” value is inactive: -12.6%.

For the compound `CCOc1ccc(N2CC(NC(=O)/C=C\c3ccc4c(c3)OCO4)CC2=O)cc1` (stereo not drawn), the “activity change, negative = inhibition” value is inactive: 13.9%.

In the case of `COc1ccc(-n2ccnc(NCc3ccccc3OC)c2=O)cc1`, the “activity change, negative = inhibition” value was inactive: 1.27%.

As for `CCOC(=O)c1sc2ccccc2c1S(=O)(=O)Nc1ccc(CC)cc1`, the “activity change, negative = inhibition” value is inactive: -20.8%.

As to `O=C(c1ccccc1)n1nc(-c2ccccc2)nc1NCc1ccc(F)cc1`, the result was inactive.

`CCc1ccc(C(=O)c2cn(CC(=O)NC3CCCCC3)c3nc(C)ccc3c2=O)cc1`: the “activity change, negative = inhibition” value was inactive: -18.8%.

As for `COc1ccc(-n2nc(C(=O)N3CCCC(C)C3)c3c4ccccc4n(C)c3c2=O)cc1` (stereo not drawn), the “activity change, negative = inhibition” value is inactive: 3.98%.

`CCOC(=O)c1cc2c(=O)n3ccccc3nc2n(C(C)C)c1=NC(=O)c1cc2ccccc2o1`: the “activity change, negative = inhibition” value was inactive: 3.76%.

On to `CCCCN(CCCC)CCNC(=O)Cn1nc(C)n2c(cc3sccc32)c1=O`, for which the call was inactive.

As for `CC(C)c1ccc(NC(=O)CS(=O)(=O)c2cccc3nsnc23)cc1`, the compound was classed as inactive.

On to `COc1cccc(CNC(=O)c2ccc3c(c2)c(C)c(C)n3Cc2ccccc2)c1OC`, for which the “activity change, negative = inhibition” value was inactive: -5.12%.

As for `COc1ccc(NS(=O)(=O)c2cc(Br)cc3c2N(C(=O)C2CC2)CC3)cc1OC`, the “activity change, negative = inhibition” value was inactive: -0.41%.

As to `CC(C)(C)C(=O)Nc1ccc2nc(SCC(=O)N3CCOCC3)sc2c1`, the compound was classed as inactive.

For `O=S(=O)(Nc1cc(F)ccc1F)c1ccc2[nH]c3c(c2c1)CCCC3`, the “activity change, negative = inhibition” value is inactive: 2.11%.

`NS(=O)(=O)c1ccc(CCNc2nccn(-c3cccc(C(F)(F)F)c3)c2=O)cc1`: the “activity change, negative = inhibition” value is inactive: 0.205%.

`CSc1nc2c(c(=O)[nH]1)C(c1cccc(F)c1F)CC(=O)N2` (stereo not drawn): the “activity change, negative = inhibition” value is inactive: -18.4%.

For the compound `O=C(Cc1ccccc1)NC1CC(=O)N(c2ccccc2)C1` (stereo not drawn), the “activity change, negative = inhibition” value is inactive: -12.7%.

For `O=c1c2oc3ccccc3c2n(Cc2cccc(Cl)c2)c(=O)n1Cc1ccco1`, the “activity change, negative = inhibition” value was inactive: 0.28%.

On to `COc1ccc(-c2cc(C(F)(F)F)nc(SCCC(=O)Nc3ccccc3F)n2)cc1`, for which the “activity change, negative = inhibition” value was inactive: 0.291%.

For the compound `Cc1ccc2occ(CC(=O)N(Cc3ccc(Cl)cc3)C3CCS(=O)(=O)C3)c2c1` (stereo not drawn), the “activity change, negative = inhibition” value was inactive: -4.41%.

As for `CCOC(=O)c1ccccc1NC(=O)CSc1ccc(-c2cccs2)nn1`, the “activity change, negative = inhibition” value is inactive: -5.94%.

Consider `Cc1cc(-c2nc3ncccc3o2)ccc1NC(=O)COc1ccccc1C`, for which the “activity change, negative = inhibition” value is inactive: 0.568%.

`Cc1nnc(N2CCN(C(=O)NC(C)C)CC2)c2nn(-c3ccccc3)c(C)c12`: the “activity change, negative = inhibition” value was inactive: -2.55%.

Turning to `CCN(CC)c1ccc(NC(=O)c2cnc3c(-c4ccccc4)c(C)nn3c2C)c(C)c1`, the “activity change, negative = inhibition” value is inactive: 9.98%.

Take `Cc1c(NC(=O)c2cc(-c3ccc(F)cc3)on2)c(=O)n(-c2ccccc2)n1C`: the “activity change, negative = inhibition” value was inactive: 2.07%.

For `COc1ccccc1N1CCN(C(=O)CN2C(=O)COc3ccc(S(=O)(=O)N4CCCCCC4)cc32)CC1`, the call was inactive.

Regarding `Cc1cccc(OCC(=O)Nc2nc3c(s2)CC(C(C)(C)C)CC3)c1C` (stereo not drawn), the compound was classed as inactive.

As for `Cc1ccc(-c2noc(CNS(=O)(=O)c3ccc(F)cc3)n2)cc1`, the compound was classed as inactive.

Regarding `Cn1cc(S(=O)(=O)c2cccc(Cl)c2)c(=O)c2cc(F)c(N3CCN(c4ccc(F)cc4)CC3)cc21`, the outcome was inactive.

`CCc1ccc(Nc2nn(-c3ccc(OC(F)(F)F)cc3)nc2C(C)=O)cc1`: the “activity change, negative = inhibition” value is inactive: 7.26%.

On to `CCCC1=Nc2cc(C(=O)NC3CCCC3)ccc2Sc2ccc(C)cc21`, for which the “activity change, negative = inhibition” value is inactive: -7.73%.

On to `Cc1cc(C)cc(NC(=O)CSc2cc(C)[nH]c(=O)n2)c1`, for which the “activity change, negative = inhibition” value is inactive: 7.08%.

Regarding `COc1cccc2c1cc1c(=O)n(CC(=O)N3CCN(c4cccc(C)c4)C(C)C3)nc(C)n12` (stereo not drawn), the “activity change, negative = inhibition” value is inactive: 6.14%.

As for `CCOC(=O)CC(NC(=O)Cn1nnc(-c2ccc(C(F)(F)F)cc2)n1)c1ccc(OC)cc1` (stereo not drawn), the “activity change, negative = inhibition” value is inactive: 5.68%.
